In PMC12136788:
This is one part of the list.

T1: UNK ZnF1-3 (human, UniProt Q9C0B0 31-174)
T1 sequence: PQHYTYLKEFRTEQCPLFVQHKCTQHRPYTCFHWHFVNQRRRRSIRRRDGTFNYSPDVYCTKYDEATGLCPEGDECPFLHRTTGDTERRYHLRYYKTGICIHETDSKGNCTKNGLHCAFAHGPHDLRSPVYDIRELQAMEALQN

B1: chr6:108246082:108246083:-_ENSG00000025796_ENST00000369002|hu_hu|motif|central (ssRNA)
RNA: GGGAGUUCUACAGUCCGACGAUCUGUUUUGGAAACUUUAUAUGCAAGGAAUAAGAACAAUGCCCAUCCUGCAAGCAGAACGGUUUUCUUUACUGUAGGAAUAAUAUUUGGCUGGGGUUUUAAUAACCGUAAACGAUACCACAUCAACAGAGGAUUGAGCAUCA
B2: chr1:163117127:163117128:-_ENSG00000143248_ENST00000313961|hu_mus|hu_hu_hu_mus_False|18_108 (ssRNA)
RNA: GGGAGUUCUACAGUCCGACGAUCUGCGGGUUAUUAUGUAACUCAACUCACAGGGCAACUUUUGGAAGCCUGACCAGAUGACUACUUGAUUAGCUCCUUAUAAAAUUCAGAGCGCACAAAGCGAGGCAGAGAAUCCUUCUCCAUCAACAGAGGAUUGAGCAUCA
B3: 105138127_105138247_1016_CDS_ENSG00000148835_ENST00000369839|human|control|control (ssRNA)
RNA: GGGAGUUCUACAGUCCGACGAUCCUGUUGCUUACUACGCGGCAUCCCAUCAAAGAUGUCAAUGUAGAGGUGCUCCUGAACUAUGUUCCAUAUCUGAUUGUUCUGUUUCUCCUGAAGAUGCCUCUUCAAGAGUUGGUACGAGUCCAACAGAGGAUUGAGCAUCA
B4: chr8:74858975:74858976:-_ENSG00000154582_ENST00000284811|hu_mus|hu_hu_hu_mus_True|18_38 (ssRNA)
RNA: GGGAGUUCUACAGUCCGACGAUCGACCUUGUAGGUAAAAUACAUGCACACUUUUGAUAGCACAUGUGAGGGGAUCUCUCUAAAAUUGACCUCGUUGGUUUCGUUCUCAGCAAACUGACCUGGGCCACUCAACAUAGCCUUUAUCAACAGAGGAUUGAGCAUCA
B5: chr2:156904787:156904788:-_ENSMUSG00000055485_ENSMUST00000069098|mus_hu|FALSE|FALSE (ssRNA)
RNA: GGGAGUUCUACAGUCCGACGAUCCCGGCCGCUGGGGCUGCGGCUGCUCUCGGCCCACCUCGGCCCCGACACCGCGUCCCCGUCCCAAGCCCCGCCGCGCGGUCUCUCCGCUGCUCUGGGCUCGGAGAGUGCGGCCCGACCGCCCAACAGAGGAUUGAGCAUCA
B6: chr18:21054979:21054980:+_ENSG00000101782_ENST00000339486|hu_hu|FALSE|FALSE (ssRNA)
RNA: GGGAGUUCUACAGUCCGACGAUCCUUUACUUCUUUUAAUUUAGGGGCUGGAACUUGAUCAUGGCCAAUAAAAGACAUAACUAAAAUGUGUUUCUUCAGUAGUACAACUGUUGGACAAGGAAUUCCAGCUCUCUGCAUUCUUGCCAACAGAGGAUUGAGCAUCA
B7: chr10:122565287:122565288:-_ENSMUSG00000020124_ENSMUST00000020334|mus_mus|motif|central (ssRNA)
RNA: GGGAGUUCUACAGUCCGACGAUCAAUUUUGGGCACAAUAACUUUGUAUUGCAUAGGUUUAGCAAGUGGAUCCAUUCGGACGGAAUAAACUUCCAAGCUACGUUCUUUUUUCAUAGGCAAUGGAAGAGUCAAGUAACAGAAAGGCAACAGAGGAUUGAGCAUCA
B8: chr3:10015032:10015033:+_ENSMUSG00000027533_ENSMUST00000029046|mus_mus|mus_mus_mus_hu_True|68_108 (ssRNA)
RNA: GGGAGUUCUACAGUCCGACGAUCGUUGUUGCCAUCACAAGUGAUGAUACAAUCUGGCUUGGCCAUUGCAGCCAUCUUUCGCAAAGCUAUUCCCACUCCUAGCUCCUUCAUGUAUUCAUCAAAGCCUUUGCUGUCCACCAGGCGCAACAGAGGAUUGAGCAUCA
B9: chr5:37680062:37680063:+_ENSMUSG00000029121_ENSMUST00000031004|mus_hu|mus_mus_mus_hu_False|8_98 (ssRNA)
RNA: GGGAGUUCUACAGUCCGACGAUCUUUGGGUGUAGCUGGCACCUCGUACACAGGACCGUCAUACAUGCCCCUGGAAACCCCUUGCAAUCCAAAAACCUUAUUCCUGAUUUUGACGCGCUGGUACAGGUGCUCUGGGAACGCCUUCAACAGAGGAUUGAGCAUCA
B10: chr5:151042278:151042279:-_ENSG00000113140_ENST00000231061|hu_mus|FALSE|FALSE (ssRNA)
RNA: GGGAGUUCUACAGUCCGACGAUCAUGACAGCCAUCUAGAUGUGAAAAAAAUCAAACCAAUUCACCAGUCUCACUUCCUCUACGUUACAACCUUUUCUGUCUUCCUCUUGAGUCUCACUUUCCUGAAACAGCCUCCCAGUGCCUCAACAGAGGAUUGAGCAUCA
B11: chr1:55135153:55135154:-_ENSMUSG00000025980_ENSMUST00000027123|mus_mus|FALSE|FALSE (ssRNA)
RNA: GGGAGUUCUACAGUCCGACGAUCUUCAUUGAUAAGGGCAAAGCACUACUCUAGGAGUUAGAACAUGCCGCCUCCCAUACCCCCUCCCAUGCCACCCAUUGCACCCAUUCCAGGGUCCUUCUCUUCUUUAGGAAUUUCUGUCACCAACAGAGGAUUGAGCAUCA
B12: chr6:52962840:52962841:+_ENSG00000112146_ENST00000323557|hu_mus|FALSE|FALSE (ssRNA)
RNA: GGGAGUUCUACAGUCCGACGAUCACAACAAAAGUGUCCUUAACAACUUCUAAUUUCAAAACAAAGUACCCCAGGAAUCAACUAUCCUUUUAAAUAAAAAAAAUAAUUUAUACUCUUCUUAAAGGAAUUCCAACAACUUAAAGUCAACAGAGGAUUGAGCAUCA
B13: chr9:95040541:95040542:-_ENSG00000196305_ENST00000443024|hu_mus|FALSE|FALSE (ssRNA)
RNA: GGGAGUUCUACAGUCCGACGAUCAAGUAUCUCAUAGUCGCUCUCUUGCUUAUAGAGGGCCGAUAAUCUGGCUUCCGUUAAGAUGAAUAAUUUUCCCCUGGCCACAUCUUUGAUCUUCACAUACUGUAUUUCUGGAUUGACGCACAACAGAGGAUUGAGCAUCA
B14: 89056248_89057110_1325_CDS_ENSMUSG00000029291_ENSMUST00000031229|mouse|control|control (ssRNA)
RNA: GGGAGUUCUACAGUCCGACGAUCAUGUCUGUUGAGUUCUUCUACAUAGUUCUUCUGGUCUAGGAUCGCAGUAAUCUGUCCAUCCCCUUCACUACCUUUACUACUGUUUCCAUCUUUGAGAUACAUCGAAAAAUCUAUAACUCCCAACAGAGGAUUGAGCAUCA
B15: chr4:175231952:175231953:+_ENSG00000164118_ENST00000503780|hu_mus|motif|central (ssRNA)
RNA: GGGAGUUCUACAGUCCGACGAUCGGGUACAAAGUCCACAUCACUAAUUGACUCACAGUCUUGACUUGCCACAUUACGCUCGGCAGAUUCACUCUUUUUGGACAACAGCAUCUCCGUUUCUAGAAGAGUGACACGACUUAGAAGCAACAGAGGAUUGAGCAUCA
B16: chr4:41496568:41496569:+_ENSG00000064042_ENST00000508501|hu_hu|motif|central (ssRNA)
RNA: GGGAGUUCUACAGUCCGACGAUCUUUAACAAGUCCUGGCUUUAUAGCAUUCAGCAACUCGCAGAGGAGGAUUCCAUUUUCGGAACCUGUCCGAAAAUCUUUAUCACCAAAACUUCUGCCAGUUACUUGCUCAAUCCACUUCUGCAACAGAGGAUUGAGCAUCA
B17: chrX:153712385:153712386:-_ENSG00000102178_ENST00000369660|hu_hu|FALSE|FALSE (ssRNA)
RNA: GGGAGUUCUACAGUCCGACGAUCUUAAACAAAUUGCCUUUAUUGUUAAACCAAUGAUUGGAUAUCAGAAACAGCCUAGCUAAUAUAGCUCCUUUUGGAUAAAAGUAGAAGCCUCACAUUCACCUUUAAUGUUAUUUCACUUUUCAACAGAGGAUUGAGCAUCA
B18: chr11:87793471:87793472:-_ENSMUSG00000020483_ENSMUST00000020775|mus_mus|mus_mus_mus_hu_False|18_88 (ssRNA)
RNA: GGGAGUUCUACAGUCCGACGAUCUGGACUUGAAAAUAAAAGAAUAAGCUAGAUUUCCCACCCCCCCACAUUGUCAACCCUACACGAGAGUUUUGAAGGCGACUCAUGAAAAUCAGCCUCAAUUGGCGCAAUGACCACCCCACCCAACAGAGGAUUGAGCAUCA
B19: chr2:198351390:198351391:-_ENSG00000144381_ENST00000345042|hu_hu|hu_hu_hu_mus_False|1_58 (ssRNA)
RNA: GGGAGUUCUACAGUCCGACGAUCUCAUUCCCACCCUCCACAGAAAGGCUGCUUCUGAACUCUCAUGUGGUGACACAGCACUAAAAUCCUGAUGCUCACAGAACAGUAGAGAUGCCUCAGUGAUUUAAGUUGAAAGCAGCAGUACAACAGAGGAUUGAGCAUCA
B20: chr14:28255117:28255118:+_ENSMUSG00000040651_ENSMUST00000022450|mus_mus|FALSE|FALSE (ssRNA)
RNA: GGGAGUUCUACAGUCCGACGAUCAACAACAUCGCCUACUGCCCCAGCCUCCAAAGGAUUAGCCUGUAAGAGAUCUGCAUACCUACAAAGAUAGAUACCCAUGGAAGGACUGCCAAGAACUGUUAUUUUGGAUUGGCCCACCUGCAACAGAGGAUUGAGCAUCA
B21: chr2:131829505:131829506:-_ENSG00000152102_ENST00000409185|hu_hu|FALSE|FALSE (ssRNA)
RNA: GGGAGUUCUACAGUCCGACGAUCUCCAGGAUACAUGUUAGGAGAAUAGGCAGGAGCUGCUGCUGCAUAGCCCAUGGGAAAACCAGCUGGAUAACCAAUUCCUUUGGCAUUUGCAUAGGGAACCCCAGAAGAUCCAGGACUAUACAACAGAGGAUUGAGCAUCA
B22: chr11:62363965:62363966:-_ENSG00000149480_ENST00000278823|perfect_dup|motif|central (ssRNA)
RNA: GGGAGUUCUACAGUCCGACGAUCCAAUCUUUUCUGCUGAAUAUACCGGUCUGUGGUUUUCCACAUGUAAUAAAACUGGACGGUGCUUGCAAGUGACUUCCAGGGUAGAAAGUCCUGGCGGAUAUCAUUGAAAUCCUUCCCGUACAACAGAGGAUUGAGCAUCA

Biological target: T1, UNK ZnF1-3
Assay: nsRBNS (natural sequence RNA bind-n-seq); RBNS binding buffer (assumed for nsRBNS): 25 mM Tris pH 7.5, 150 mM KCl, 3 mM MgCl2, 0.01% Triton X-100, 500 ug/ml BSA, 20 U/ml SUPERase-In, 4 C; UNK is unkempt and MSI1 is Musashi-1; names of the RNAs are library labels; protein concentration not given here; high values mean tight binding

Question: B1 was tested. Which binding signal did it give?
Answer: Its binding signal is 0.611 enrichment R.

Question: With B2 as the binder, how does the binding signal read?
Answer: The binding signal was 0.904 enrichment R.

Question: Which binding signal does the source give for B3 here?
Answer: The binding signal was 0.455 enrichment R.

Question: With B4 as the binder, how does the binding signal read?
Answer: Its binding signal is 0.547 enrichment R.

Question: For B5, which binding signal is on record?
Answer: The binding signal was 1.68 enrichment R.

Question: With B6 as the binder, how does the binding signal read?
Answer: Its binding signal is 1 enrichment R.

Question: Which binding signal does the source give for B7 here?
Answer: Its binding signal is 1.18 enrichment R.

Question: For B8, which binding signal is on record?
Answer: The binding signal was 0.736 enrichment R.

Question: B9 was tested. Which binding signal did it give?
Answer: The binding signal was 0.739 enrichment R.

Question: Which binding signal does the source give for B10 here?
Answer: Its binding signal is 1.26 enrichment R.

Question: For B11, which binding signal is on record?
Answer: Its binding signal is 1.01 enrichment R.

Question: With B12 as the binder, how does the binding signal read?
Answer: Its binding signal is 2.76 enrichment R.

Question: Which binding signal does the source give for B13 here?
Answer: Its binding signal is 0.904 enrichment R.

Question: How did the binding signal turn out when B14 was run?
Answer: Its binding signal is 0.736 enrichment R.

Question: Which binding signal does the source give for B15 here?
Answer: The binding signal was 0.979 enrichment R.

Question: Which binding signal does the source give for B16 here?
Answer: The binding signal was 0.437 enrichment R.

Question: Which binding signal does the source give for B17 here?
Answer: The binding signal was 0.826 enrichment R.

Question: With B18 as the binder, how does the binding signal read?
Answer: Its binding signal is 2 enrichment R.

Question: With B19 as the binder, how does the binding signal read?
Answer: Its binding signal is 1.27 enrichment R.

Question: Which binding signal does the source give for B20 here?
Answer: Its binding signal is 1.86 enrichment R.

Question: B21 was tested. Which binding signal did it give?
Answer: Its binding signal is 1.19 enrichment R.

Question: With B22 as the binder, how does the binding signal read?
Answer: Its binding signal is 1.31 enrichment R.
